Data from PMC4336329 (PLoS ONE, 2015).
The campaign covered roughly 310,000 compounds. About 14,000 (4.5%) showed an effect of 50% or more. The effect is printed as a negative number. The list shows a part of the results.

What follows are compounds tested against human ether-à-go-go-related gene (hERG) potassium channel (human, UniProt Q12809) (assay: primary screen, population patch clamp on CHO cells stably expressing hERG).
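Note: peak tail current of the secondary pulse compared with the same well before compound.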

Chain of human ether-à-go-go-related gene (hERG) potassium channel (Q12809 whole entry, looked up): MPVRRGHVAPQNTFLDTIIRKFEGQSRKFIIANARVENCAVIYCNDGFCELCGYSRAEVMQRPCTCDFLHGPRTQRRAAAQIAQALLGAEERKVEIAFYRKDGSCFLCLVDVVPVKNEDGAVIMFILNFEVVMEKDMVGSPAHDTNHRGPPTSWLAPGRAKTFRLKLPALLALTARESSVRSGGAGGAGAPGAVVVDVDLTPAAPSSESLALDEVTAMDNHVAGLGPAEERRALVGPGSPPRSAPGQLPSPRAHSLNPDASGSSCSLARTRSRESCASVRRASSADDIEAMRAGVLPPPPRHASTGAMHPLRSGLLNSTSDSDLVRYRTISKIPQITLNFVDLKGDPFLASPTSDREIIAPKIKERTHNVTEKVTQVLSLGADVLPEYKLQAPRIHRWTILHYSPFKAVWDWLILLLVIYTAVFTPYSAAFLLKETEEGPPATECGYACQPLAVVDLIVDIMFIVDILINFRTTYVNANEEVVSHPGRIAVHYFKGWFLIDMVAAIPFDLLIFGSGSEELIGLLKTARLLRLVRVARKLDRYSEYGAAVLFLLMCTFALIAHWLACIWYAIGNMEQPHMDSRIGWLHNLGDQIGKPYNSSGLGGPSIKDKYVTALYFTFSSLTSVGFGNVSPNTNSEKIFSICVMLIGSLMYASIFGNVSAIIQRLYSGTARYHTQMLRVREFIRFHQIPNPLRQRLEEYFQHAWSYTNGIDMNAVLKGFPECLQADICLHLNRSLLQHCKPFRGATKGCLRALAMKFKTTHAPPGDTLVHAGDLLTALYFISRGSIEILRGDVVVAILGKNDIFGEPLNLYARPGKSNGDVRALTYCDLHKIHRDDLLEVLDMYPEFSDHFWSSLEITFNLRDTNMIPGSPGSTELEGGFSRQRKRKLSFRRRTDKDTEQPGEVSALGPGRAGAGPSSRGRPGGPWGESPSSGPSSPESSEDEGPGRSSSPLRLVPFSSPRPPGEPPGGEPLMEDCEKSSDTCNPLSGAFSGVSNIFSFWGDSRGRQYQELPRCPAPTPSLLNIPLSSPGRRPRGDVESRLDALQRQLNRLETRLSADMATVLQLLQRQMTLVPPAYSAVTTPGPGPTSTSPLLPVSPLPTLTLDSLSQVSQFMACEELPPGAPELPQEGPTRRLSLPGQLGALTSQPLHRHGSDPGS

Row | Structure (SMILES) | hERG current change (%, negative = inhibition) at 10uM
1 | COC(=O)c1cccc(NC(=S)Nc2ccccc2Cl)c1 | -3.48%
2 | Cc1ccc(OCC(=O)N[C@@H](C)c2nnc3ccccn23)cc1C | 3.89%
3 | CCCc1cc(=O)oc2c(C)c(OC(C)C(=O)NCC(O)c3ccccc3)ccc12 (stereo not shown) | -36.3%
4 | CCCNC(=O)C12CCC(C)(C(=O)C1Br)C2(C)C (stereo not shown) | -2.81%
5 | Cc1ccc(N(CC(=O)Nc2ccc3c(c2)OCCO3)S(C)(=O)=O)cc1 | 0.681%
6 | CN1CCc2nc(SCc3ccc(C(C)(C)C)cc3)c(C#N)cc2C1 | -9.71%
7 | O=C(c1cc2ccccc2o1)N1CCN(c2ccccc2Cl)CC1 | -11.6%
8 | CC(=O)NCCCOc1ccc([N+](=O)[O-])cc1Cl | 6.8%
9 | CC(=O)N1CCc2cc(S(=O)(=O)NC(C(=O)NCc3ccccc3)C(C)C)ccc21 (stereo not shown) | -20.9%
10 | Cc1ccccc1-c1nnc(SCC(=O)c2c(N)n(C3CC3)c(=O)[nH]c2=O)o1 | 7.7%
11 | COc1ccccc1-c1nc2ccccc2nc1-c1ccccc1 | 6.3%
12 | CN(c1ccc(C(=O)NC2CCCC2)cc1)S(=O)(=O)c1ccc(Cl)cc1 | 16.2%
13 | CCCCSc1nnc(-c2ccc(C)cc2)n1C | -33.7%
14 | CCCCn1c(SCC(=O)Nc2cc(C)on2)nc2ccccc2c1=O | 2.03%
15 | Nc1nc(-c2cc3c(cc2Cl)OCCO3)cs1 | 6.72%
16 | Cc1ccc(SCCOCCN2CC(C)OC(C)C2)cc1.Cl (stereo not shown) | -12.4%
17 | COc1ccccc1CNC(=O)C1CCC1 | -4.94%
18 | CN(Cc1ccccc1)CC(O)COc1ccc(CNCc2cccnc2)cc1 (stereo not shown) | 1.13%
19 | CCOC(=O)Cc1csc(NC(=O)COc2ccc(C)cc2)n1 | -3.63%
20 | O=C(c1ccccc1F)N1CCN(c2ccccc2F)CC1 | -2.08%
21 | CCC(C)[C@H](NC(=O)Nc1cccc(Cl)c1)C(=O)O (stereo partly shown) | 9.82%
22 | CC(C)(O)c1[nH]c2cc(C(F)(F)F)ccc2c1C(C)(C)O | 11.1%

Row | Structure (SMILES) | hERG current change (%, negative = inhibition) at 10uM
23 | Cn1c(=O)c2c(ncn2CC(=O)Nc2nc(-c3ccc(F)c(F)c3)cs2)n(C)c1=O | 13.9%
24 | COc1ccc(/C=C\c2onc(C)c2S(=O)(=O)N2CCC(C(=O)NCCC(C)C)CC2)cc1 | -7.26%
25 | COc1cc([N+](=O)[O-])ccc1NC(=O)NCC1CCN(Cc2ccc(Cl)cc2)CC1 | -60.9%
26 | COc1ccc(CCNc2ccncn2)cc1.Cl | 3.65%
27 | O=C(CSc1nnc(COc2ccc(Cl)cc2)o1)N1CCCC1 | -13.5%
28 | CCC1CCc2c(sc3ncnc(N4CCOCC4)c23)C1 (stereo not shown) | -20.8%
29 | COc1ccc(/C=N/Nc2ncccc2[N+](=O)[O-])c(OC)c1 | 2.07%
30 | Cc1ccc(-c2nn3c(C)nnc3s2)cc1NC(=O)CSc1ccc(Cl)cc1 | -14%
31 | CCOc1ccc(NC(=O)c2cccnc2Cl)c([N+](=O)[O-])c1 | -9.98%
32 | C#CCOCCOCCOCCNc1nc(N2CCN(C(=O)[C@H]([C@@H](C)CC)n3cc([C@@H](N)CO)nn3)CC2)nc(N2CCN(C(=O)[C@H]([C@@H](C)CC)n3cc([C@@H](N)Cc4ccc(O)cc4)nn3)CC2)n1.Cl | 4.48%
33 | CN1CCCCC1c1ccc(-c2cccnc2)nc1.Cl (stereo not shown) | 0.0318%
34 | O=S(=O)(NCC1CCCO1)c1ccc(S(=O)(=O)N2CCc3ccccc3C2)cc1 (stereo not shown) | 20.2%
35 | OC(CN1CCN(c2ccc(F)cc2)CC1)c1ccc(Cl)cc1 (stereo not shown) | -37.9%
36 | O=C1/C(=C\c2ccco2)SC(=S)N1c1ccccc1 | -0.16%
37 | O=c1[nH]c(=O)c2nnc(N/N=C/c3ccccc3F)nc2[nH]1 | 7.2%
38 | C[C@H]1CC[C@]2(O[C@@H](CCO)C[C@H](O)[C@H]2O)O1 | 19.7%
39 | COc1nc(N(C)C)nc(N(C)c2cc(Cl)cc(Cl)c2)n1 | 2.99%
40 | COc1cc(NC(=S)NCC2CCCO2)c(OC)cc1Cl (stereo not shown) | 5.01%
41 | O=C(NCCCN1CCC(Cc2ccccc2)CC1)C1CCN(S(=O)(=O)N2CCC3(CC2)OCCO3)CC1 | -42.7%
42 | Nc1c(Cl)cc2c(c1Oc1ccccc1)C(=O)c1ccccc1C2=O | 3.84%
43 | O=c1[nH]cnc2ccsc12 | 18.6%
44 | COCCNC(=O)COc1ccccc1Cl | 1.56%

Row | Structure (SMILES) | hERG current change (%, negative = inhibition) at 10uM
45 | O=C(NC1CCCCC1)c1cc(-c2cccs2)on1 | -1.56%
46 | CCCc1nc(NCc2ccccn2)c2nnn(Cc3ccccc3F)c2n1 | 5.34%
47 | Cc1ccc(S(=O)(=O)N2CCOCC2)cc1C(=O)Nc1ccc2c(c1)OCCO2 | 3.14%
48 | O=C(CN1CCCC1)Nc1ccc([N+](=O)[O-])cc1Cl | -16.9%
49 | CC1=Nc2nc(N3CCCCCC3)c(C#N)c3c4c(nc(c23)N1)N(c1ccc2ccccc2c1)C(=O)C4.CN(C)C=O | 14.2%
50 | O=C(COc1ccccc1F)c1ccc(O)cc1O | -13.8%
51 | Cc1cc(=O)oc2cc(OCC(=O)NCC3CCC(C(=O)O)CC3)ccc12 (stereo not shown) | 22.8%
52 | Cc1cc(NC(=O)c2cccc(Cl)c2)n[nH]1 | 7.05%
53 | N#Cc1c(SCC(N)=O)nc2c(c1-c1ccncc1)CCCC2 | -42.1%
54 | COc1ccc(CCN(C(=O)c2ccc(F)cc2)C2=CC3CCC(C2)N3C)cc1OC.Cl (stereo not shown) | -46.6%
55 | O=c1c2ccccc2nnn1CSc1ncnc2ccccc12 | 6.65%
56 | O=[N+]([O-])c1c(Nc2ccccc2)ccc2nonc12 | -3.47%
57 | COc1ccc(CN(C)C(C)C(=O)Nc2ccc(S(=O)(=O)N3CCOCC3)cc2)c(OC)c1 (stereo not shown) | -27.5%
58 | COc1ccc(OC)c(N(CC(=O)Nc2cccc3ccccc23)S(C)(=O)=O)c1 | 0.254%
59 | C/C(=N\NC(=O)C1CC1c1ccccc1)c1ccc(C)s1 (stereo not shown) | -6.02%
60 | COc1ccccc1/C=N/NC(=O)c1cccc2ccccc12 | 12.8%
61 | CCOC(=O)/C(C#N)=c1/s/c(=C2\C=Cc3ccccc3N2CC)c(=O)n1CC | 13.6%
62 | Cc1cc(C)cc(NC(=O)c2ccc(Cn3nc(C)c(Cl)c3C)o2)c1 | 12.1%
63 | CCC(=O)N(C)CCc1cc2c(c(OC)c1/C=N/NC(=O)c1ccncc1)OCO2 | -6.56%
64 | O=C(/C=C/c1ccc(F)cc1)N1CC[C@@]2(O)CCCC[C@H]2C1 | -5.89%
65 | c1ccc(-c2cc(N3CCOCC3)nc(-c3ccccc3)n2)cc1 | -5.46%
66 | c1cnc2c(SCc3ccc(-c4nnco4)cc3)cccc2c1 | 1.45%

Row | Structure (SMILES) | hERG current change (%, negative = inhibition) at 10uM
67 | O=C1CC(C2CCCO2)C(=O)N1Cc1ccccc1 (stereo not shown) | 3.23%
68 | O=C(Cn1nc(-c2ccccc2)ccc1=O)Nc1ccc(N2CCN(C(=O)c3ccccc3)CC2)cc1 | -37.8%
69 | O=C(c1cnc(N2CCN(c3ncccn3)CC2)c2ccccc12)N1CCN(c2ncccn2)CC1 | -21.3%
70 | NC(=O)c1ccsc1NC(=O)COC(=O)c1cnccn1 | 2.13%
71 | O=C(CSc1ncn(-c2ccccc2)n1)Nc1nccs1 | 14.1%
72 | Cc1csc(NC(=O)c2cc([N+](=O)[O-])cc([N+](=O)[O-])c2)n1 | -13.8%
73 | CCOC(=O)c1c(C)n(C)c2cc(-c3ccc(C)cc3)c(O)cc12 | 15.1%
74 | Cc1c(C)c2c(OCC(=O)NCC(O)c3ccccc3)cc3c(c2oc1=O)CCC(C)(C)O3 (stereo not shown) | 9.68%
75 | Cc1nn(Cc2ccccc2)c(C)c1NC(=O)CSc1n[nH]c(C)c1[N+](=O)[O-] | 3.02%
76 | CC(C)NCC1CCc2cc(CO)c([N+](=O)[O-])cc2N1 (stereo not shown) | 13%
77 | O=[N+]([O-])c1ccc(/C=N/Nc2nc(N3CCOCC3)nc(N3CCOCC3)n2)cc1 | 4.32%
78 | N#Cc1cc(Oc2cccc3cccnc23)c(-n2nnc3ccccc32)cc1C#N | -4.96%
79 | Cc1nn(C)c(Oc2ccc(Cl)cc2)c1C(=O)O | 12.8%
80 | CC(C)NC(=O)C(=O)N/N=C/c1ccco1 | 14.8%
81 | O=C(O)CCNc1cc2ccccc2cc1C(=O)O | -1.7%
82 | CN(C(=O)CSc1nc2sc3c(c2c(=O)n1C)CCC3)C1CCS(=O)(=O)C1 (stereo not shown) | -1.43%
83 | COc1cc(C)ccc1OCCOCCOc1ccccc1Br | 1.75%
84 | CC(=O)n1cc(N(C(=O)CCl)c2ccccc2)c2ccccc21 | 1.19%
85 | CC1CN(CCOc2ccccc2[N+](=O)[O-])CC(C)O1.O=C(O)C(=O)O (stereo not shown) | 3.11%
86 | Cc1ccc(C)c(CN2C(=O)c3ccccc3S(=O)c3ccc(C(=O)N4CCN(c5ccccn5)CC4)cc32)c1 (stereo not shown) | 12.9%
87 | O=C(Nc1ccc(Cl)cc1)Nc1cnccn1 | 11.8%
88 | COc1ccc(NC(=O)c2ccccc2SC)c(OC)c1 | -2.15%
